According to US11827699 (dated 2023):

Molecular target: T1, mouse FcγRIIb (mouse, UniProt P08101)
T1 chain: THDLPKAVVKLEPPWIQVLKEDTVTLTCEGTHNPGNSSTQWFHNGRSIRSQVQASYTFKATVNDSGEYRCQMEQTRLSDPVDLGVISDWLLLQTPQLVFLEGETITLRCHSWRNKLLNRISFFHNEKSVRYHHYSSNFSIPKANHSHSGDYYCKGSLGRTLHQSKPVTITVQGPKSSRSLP
Assay: SPR, pH 7.4

Kd: 10 nM
B1: VH3/L(WT)-IgG1-F1022 (antibody)
chain 1: QVQLQESGPGLVKPSETLSLTCAVSGHSISHDHAWSWVRQPPGEGLEWIGFISYSGITNYNPSLQGRVTISRDNSKNTLYLQMNSLRAEDTAVYYCARSLARTTAMDYWGEGTLVTVSS[gap - human IgG1 constant region with K326D L328Y (EU numbers)]
chain 2: DIQMTQSPSSLSASVGDRVTITCRASQDISSYLNWYQQKPGKAPKLLIYYTSRLHSGVPSRFSGSGSGTDFTFTISSLQPEDIATYYCQQGNTLPYTFGQGTKVEIKRTVAAPSVFIFPPSDEQLKSGTASVVCLLNNFYPREAKVQWKVDNALQSGNSQESVTEQDSKDSTYSLSSTLTLSKADYEKHKVYACEVTHQGLSSPVTKSFNRGEC
